Data: the supplement of paper PMC3334620
Over roughly 33,000 sequences, “E-score (-0.5 to 0.5)” has its median near -0.01; the highest 2% begin near 0.26. This is one part of the list.

target: Ste12 (UniProt P13574); test: PBM E-score (8-mer binding enrichment) (E-score (-0.5 to 0.5)); higher = stronger / more preferred TF binding; most listed sequences are background and not binding sites; details: protein concentration: 200 nM; construct: GST-DNA-binding domain
Outline: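 Yeast transcription factors carrying a GST tag, as full-length proteins or DNA-binding domains, were produced by PURExpress in vitro transcription/translation. About 100-200 nM protein was applied to universal all-10-mer Agilent arrays, double-stranded by primer extension on fresh or once-stripped slides. Bound protein was detected with fluorescent anti-GST, and scans were normalised with masliner. The Universal PBM Analysis Suite gave each ungapped eight-base word, pooled with its reverse complement, an E-score, a modified Wilcoxon-Mann-Whitney statistic.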

| Sequence | PBM E-score |
| --- | --- |
| AAACAGAC | 0.228 |
| ACGGACTA | -0.0824 |
| CCGTCGCC | 0.0242 |
| AGCTCAGG | 0.00027 |
| AGTTTTGG | 0.104 |
| CCTTGTAC | -0.00301 |
| CCCCATAC | 0.0796 |
| CGCTGATC | 0.168 |
| GTGACCTA | -0.117 |
| AAATCCGA | 0.258 |
| CGTGGTAG | -0.0769 |
| CCAAGGTC | -0.169 |
| GCGGTCTA | -0.0554 |
| AGCAATTG | -0.159 |
| ACGCAGCT | -0.196 |
| ATATACTC | 0.118 |
| CACTATAA | 0.177 |
| AAGCCGGC | 0.0834 |
| AGCGTATA | 0.0962 |
| GGAACCAC | -0.299 |
| CATCCAGG | -0.126 |
| AAAAGCAC | -0.169 |
| ACACGTTA | -0.0848 |
| AAAAATTC | 0.224 |
| ACCATAGC | -0.134 |

| Sequence | PBM E-score |
| --- | --- |
| CTTGTTGC | 0.00409 |
| ATTAGCCG | 0.0107 |
| TAACAACA | 0.116 |
| CACGTGCG | -0.023 |
| CACCTCCA | -0.0182 |
| CGAGTCCC | -0.00746 |
| ACATTGTC | 0.169 |
| AAACCCAC | 0.211 |
| ACCTAGCG | -0.241 |
| ATAGCTGG | 0.069 |
| AGGGGCGG | 0.452 |
| CAATAGGG | 0.0628 |
| ATTGACAA | -0.112 |
| TATACCGA | 0.0793 |
| CCAGCAAA | 0.105 |
| AAATTTGC | 0.0182 |
| AAATACTA | 0.256 |
| CACGTAAG | -0.253 |
| CCGCTGTC | -0.134 |
| AAGCCTGC | 0.0008 |
| GATGAAGC | 0.00101 |
| GGCTCGAA | -0.146 |
| TCTACCCA | 0.0452 |
| GAGGACCC | -0.227 |
| GTCTGGTA | -0.017 |

| Sequence | PBM E-score |
| --- | --- |
| CGTATGAC | 0.0679 |
| ATAATCAG | -0.0187 |
| CATGGGTA | -0.109 |
| AGATTAAC | 0.0726 |
| ATACCAGG | 0.0311 |
| CCACGGGC | -0.214 |
| CCCGCTCG | -0.0264 |
| AGTTTGAA | 0.174 |
| CTCTCAGC | -0.121 |
| ACCGCAGC | -0.0929 |
| ACGCAGAA | -0.123 |
| ACAATTGA | 0.0603 |
| GTTTAAGA | 0.0839 |
| ATAGTTAG | 0.114 |
| TAGGATGA | 0.127 |
| GTATTGTA | 0.184 |
| ATGTAGAC | -0.118 |
| CCTTACCG | -0.032 |
| ATATTGTA | 0.161 |
| CTCAAGAG | -0.163 |
| AGCTCTAA | -0.0946 |
| AGCATGCA | -0.152 |
| CACTAATA | 0.0757 |
| AGACACCT | -0.179 |
| CACACGGA | -0.0528 |

| Sequence | PBM E-score |
| --- | --- |
| GGGCTACC | -0.292 |
| CTGCGACA | 0.141 |
| AAGCCAAG | 0.0515 |
| CATCGATG | 0.17 |
| ATAGTACG | 0.0104 |
| CAATGATC | 0.0182 |
| ATTGGACA | -0.0182 |
| CTATTATA | 0.084 |
| ATGTTAGA | 0.0296 |
| CTAACACA | 0.107 |
| CCCGAGCC | 0.014 |
| CCACTACC | -0.0452 |
| GGAGCGCC | -0.162 |
| CCTCCGAC | -0.0722 |
| TCGCCCCA | 0.0341 |
| AACTACGA | 0.0326 |
| GCTCCTTA | -0.11 |
| CACTAGGA | -0.181 |
| TATTGGCA | 0.132 |
| AAGCACTA | 0.0131 |
| AGCAGGTC | 0.012 |
| AGACTGCA | -0.0839 |
| AGCTGCAG | 0.033 |
| GTTTTAGA | 0.253 |
| CCTAAAGG | -0.238 |

| Sequence | PBM E-score |
| --- | --- |
| CCAGGATC | -0.112 |
| ATCACTCG | -0.0351 |
| CCAGTCCA | -0.151 |
| CCCAAATC | -0.0715 |
| CATCTGTC | 0.0223 |
| AACAGGAA | -0.067 |
| ACATCGTC | -0.0946 |
| CATTGTCC | 0.0283 |
| AATACTTC | -0.0537 |
| CGTAACCC | -0.0268 |
| CCGATTAA | 0.00959 |
| GCCGTCCC | -0.0616 |
| GTCGCACA | 0.00167 |
| GCGCCAAA | 0.107 |
| CCTCGGAC | 0.00929 |
| ACTCGACG | 0.0976 |
| GCCTCCGC | -0.0888 |
| CATATGGG | 0.0935 |
| CGATGAAA | 0.289 |
| CAAATCAC | -0.0631 |
| AGATGCCT | -0.00729 |
| AGTAAACG | 0.082 |
| ATAGGCTA | 0.0305 |
| CCTAATTC | 0.0851 |
| TGCAGGAA | 0.0964 |

| Sequence | PBM E-score |
| --- | --- |
| AAAAACCG | 0.178 |
| GTAGATTA | 0.127 |
| CTAGACAC | -0.165 |
| ATAGGAGC | -0.138 |
| AATTTCGA | 0.199 |
| GAAGAGAA | 0.132 |
| AAGACGGA | 0.119 |
| TATCTGAA | 0.135 |
| CTCGACCC | -0.0876 |
| CTCTTTGC | -0.188 |
| AACAGTTC | 0.0905 |
| GTTAACAA | 0.138 |
| GAGAGGTA | -0.257 |
| CAACTTTC | 0.149 |
| CGGTGCAG | -0.0602 |
| ACCTCTAC | -0.0118 |
| GGACCCCA | -0.101 |
| CCCTCCCA | 0.33 |
| AACAAGTA | 0.00602 |
| AACCTCTG | 0.0563 |
| TGCGCCAA | 0.131 |
| CGGGGTCA | -0.0216 |
| CCTGGGAC | -0.239 |
| ACTGGGTC | -0.21 |
| TGGCGCCA | -0.0868 |

| Sequence | PBM E-score |
| --- | --- |
| GGAAAGAA | 0.258 |
| ATGGTATA | 0.0689 |
| CAATAGCA | -0.164 |
| ACTACGCC | 0.0102 |
| ATAACATC | 0.0956 |
| AATTTACA | 0.181 |
| AGTATACG | -0.0281 |
| CCCCTTAC | -0.189 |
| CGTCTCAA | 0.233 |
| AAAGAAAA | 0.351 |
| GTAATAGA | -0.018 |
| ATTCTAAC | -0.0101 |
| GCTTACGA | -0.0479 |
| CGCCATCC | -0.0776 |
| GTAAACAA | 0.195 |
| GCTATACA | -0.191 |
| ACCATAGT | -0.00208 |
| GTGTCTTA | -0.0314 |
| ATGGGAAA | 0.0119 |
| CACTCCAA | -0.0681 |
| CAAAAGTC | 0.0372 |
| ATAGCTCC | -0.162 |
